The record followed here is PubChem BioAssay AID1347073 (National Center for Advancing Translational Sciences (NCATS), 2019).

In all, about 45,000 compounds went through this assay and about 200 (0.44%) were called active. Another 7% or so got no clear call; they are omitted. Calls come from the whole dose curve; as a rule, active = well fitted activation curve with a large enough effect; inconclusive = small, poorly fitted or top-dose-only effect; inactive = no such curve, though single readings can be large or run the other way. This is one part of the list.

The nature of this experiment: qHTS of TDP-43 Inhibitors: NCGC Sytravon Library Screen. Note: 0% is about no effect; nearly all actives have a fitted effect of over 55% in size. The conditions noted are these: yeast TDP-43 toxicity rescue, BacTiter-Glo growth, 24 h; series mostly up to 46.1 µM; growth rescue (activation): at the top concentration. The gist of the method:
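TDP-43-expressing yeast, pregrown in raffinose, seeded at OD600 0.02 in galactose medium with compound for 24 hr at 30 deg C. Growth read by BacTiter-Glo luminescence, so rescue of toxicity appears as activation.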
For the compound `COCCC(=O)Nc1ccc2c(c1)CN(C(=O)CCOC)CC2`, the “growth rescue (activation)” value was inactive: 6.78%.

Regarding `COc1cc(/C=C/C2=CC(C)(C)NC(=S)N2)cc(OC)c1OC`, the “growth rescue (activation)” value was inactive: 9.14%.

Take `CC(=O)c1c(C)[nH]c(C(=O)Nc2ccc(Cl)cc2F)c1C`: the “growth rescue (activation)” value is inactive: 2.83%.

In the case of `O=C(Cn1nc(-c2ccccc2)ccc1=O)Nc1ccc(-n2cnnn2)cc1`, the “growth rescue (activation)” value is inactive: 21.9%.

For the compound `CCNC(=O)C1(C)CCCN(C(=O)c2cc(C)n(C(C)(C)C)n2)C1` (stereo not drawn), the “growth rescue (activation)” value is inactive: -7.03%.

Take `CC(C)CNC(=O)c1cccc2c(-c3ccc(F)c(F)c3)coc12`: the “growth rescue (activation)” value is inactive: 20.7%.

Take `CS(=O)(=O)N(CC(=O)N1CCN(Cc2ccccc2)CC1)c1ccccc1F`: the “growth rescue (activation)” value is inactive: -24.9%.

Consider `COCCn1c(=O)[nH]c2cc(C(=O)N3CCN(c4cccc(C(F)(F)F)c4)CC3)ccc2c1=O`, for which the “growth rescue (activation)” value was inactive: 13.7%.

On to `Cc1ccc(C(=O)NCCCCNC(=O)c2ccc(C)o2)o1`, for which the “growth rescue (activation)” value was inactive: 16.8%.

In the case of `CN(C)c1cccc(C(=O)Nc2nnc(Cc3ccccc3)s2)c1`, the “growth rescue (activation)” value was inactive: 23.5%.

Take `COc1ccc(-n2nc(C(=O)NCC(=O)N3CCOCC3)c3ccccc3c2=O)c(OC)c1`: the “growth rescue (activation)” value was inactive: 1.32%.

For `NC(=NCc1ccco1)NC(=O)c1ccc(Cl)cc1`, the “growth rescue (activation)” value is inactive: 8.91%.

Turning to `CCOC(=O)c1ccc2ncc(C(=O)OCC)c(NCc3ccco3)c2c1`, the “growth rescue (activation)” value is inactive: 28.8%.

On to `O=C(/C=C/c1ccc([N+](=O)[O-])cc1)NCc1cccs1`, for which the “growth rescue (activation)” value was inactive: -24.9%.

Turning to `CCC1=NC(c2ccc(Br)cc2)N(O)C1(C)C` (stereo not drawn), the “growth rescue (activation)” value was inactive: -4.35%.

Consider `O=C1CCC(C(=O)OCC(=O)N2N=C3/C(=C\c4ccccc4)CCCC3C2c2ccccc2)N1` (stereo not drawn), for which the “growth rescue (activation)” value is inactive: 24.6%.

As for `S=c1nc(-c2ccc(Cl)cc2)[nH][nH]1`, the “growth rescue (activation)” value was inactive: 8.14%.

Consider `CCOC(=O)c1ccccc1NC(=O)COC(=O)CCNS(=O)(=O)c1cccs1`, for which the “growth rescue (activation)” value was inactive: 8.74%.

Take `Cc1ccc(C2=CC(c3cccs3)n3nnnc3N2)cc1` (stereo not drawn): the “growth rescue (activation)” value is inactive: 13%.

Regarding `CC(=O)N1CC(=O)N(CC(=O)Nc2ccc(Br)cc2)C1=S`, the “growth rescue (activation)” value is inactive: -8.16%.

Consider `COc1ccccc1CNc1nc2ccc(Cl)cc2n2cnnc12`, for which the “growth rescue (activation)” value was inactive: 11.2%.

As for `CCC(NC(=O)c1cc(COc2cncc(Cl)c2)on1)c1ccc(C)cc1` (stereo not drawn), the “growth rescue (activation)” value is inactive: 37.8%.

As for `COc1ccc(CCNS(=O)(=O)c2cccc([N+](=O)[O-])c2)cc1`, the “growth rescue (activation)” value is inactive: 22.8%.

In the case of `O=C(CSc1nc(-c2ccccc2)cs1)Nc1cccc([N+](=O)[O-])c1`, the “growth rescue (activation)” value was inactive: 2.34%.

Regarding `O=C(NC(=S)Nc1ccccc1OC(F)F)c1ccc2c(c1)OCO2`, the “growth rescue (activation)” value was inactive: 24.2%.

In the case of `CN=C1S/C(=C\c2c(OC)cc(OC)cc2OC)C(=O)N1C`, the “growth rescue (activation)” value is inactive: 11.5%.

Turning to `Cc1onc(-c2c(Cl)cccc2Cl)c1C(=O)Nc1nccs1`, the “growth rescue (activation)” value is inactive: 13.4%.

On to `CCN(CC)S(=O)(=O)c1ccc(N2CCCC2)c(NC(=O)c2ccc([N+](=O)[O-])o2)c1`, for which the “growth rescue (activation)” value is inactive: 18%.

For the compound `CCCOC(=O)c1ccc(S(N)(=O)=O)o1`, the “growth rescue (activation)” value is inactive: 3.92%.

Take `Cn1cc(CN2CCCC(C(=O)c3cccs3)C2)c(-c2cccc(Cl)c2)n1` (stereo not drawn): the “growth rescue (activation)” value is inactive: 5.06%.

With `COC(=O)c1c(NC(=O)CN2C(=O)NC(CCc3ccccc3)C2=O)sc2c1CCCCC2` (stereo not drawn), the “growth rescue (activation)” value was inactive: -21.8%.

In the case of `OCC1(Cc2ccccc2)CCCN(Cc2cnn(-c3ccccc3)c2)C1` (stereo not drawn), the “growth rescue (activation)” value is inactive: -0.691%.

Consider `CC(NC(=O)CN(C)Cc1cccs1)c1ccccc1` (stereo not drawn), for which the “growth rescue (activation)” value is inactive: -6.58%.

As to `CCOc1ccc(N(C)c2ccc(/C=C3/SC(=S)NC3=O)cc2)cc1`, the “growth rescue (activation)” value is inactive: -6.3%.

`COc1ccc(-c2nc(N)sc2C2(O)C(=O)Nc3c(Br)cc(F)cc32)cc1OC` (stereo not drawn): the “growth rescue (activation)” value is inactive: 19.9%.

For `O=C(Cn1nnc(-c2cc(Cl)ccc2-n2cnnn2)n1)N1CCCc2ccccc21`, the “growth rescue (activation)” value was inactive: -10.7%.

In the case of `O=C(CNC(=O)c1ccccc1F)NC1CCN(Cc2ccccc2)CC1`, the “growth rescue (activation)” value is inactive: -2.3%.

On to `COc1ccc(/C=C/CN2CCN(Cc3ccc(F)cc3)C(CCO)C2)cc1` (stereo not drawn), for which the “growth rescue (activation)” value was inactive: -11%.

Turning to `CCOc1ccc(C2C(C#N)=C(N)Oc3cc(C)[nH]c(=O)c32)cc1OC` (stereo not drawn), the “growth rescue (activation)” value was inactive: 1.11%.

`O=C(COc1ccc(Br)cc1)NCc1cn2ccccc2n1`: the “growth rescue (activation)” value is inactive: 26.8%.

For `O=C(CCC1CCCN(C(=O)c2cc(C3CC3)[nH]n2)C1)N1CCN(c2ccccn2)CC1` (stereo not drawn), the “growth rescue (activation)” value is inactive: 1.64%.

With `Cc1ccc(C)c(NC(=O)CSc2nnc(C3CCCCC3)o2)c1`, the “growth rescue (activation)” value was inactive: 8.97%.

`COCCNC(=O)c1ccc(C(=O)C(=O)c2ccccc2)cc1`: the “growth rescue (activation)” value was inactive: 13.4%.

Take `Cc1ccc(/C=N/Nc2nncn2N)cc1`: the “growth rescue (activation)” value was inactive: 9.63%.

For the compound `Cn1c(=O)n(CC(N)=O)c2ccccc21`, the “growth rescue (activation)” value is inactive: 6.45%.

On to `Cn1c(SCC(=O)N/N=C/C=C/c2ccco2)nc2ccccc21`, for which the “growth rescue (activation)” value is inactive: 6.23%.

For the compound `Cc1ccc(CC2C(=O)N(c3ccc(C)cc3)C(=O)C2C)cc1` (stereo not drawn), the “growth rescue (activation)” value is inactive: 17.2%.

For `Fc1cccc(Nc2nc(-c3ccncc3)nc3ccccc23)c1`, the “growth rescue (activation)” value was inactive: 18.9%.

Turning to `CCN1CC(=O)Nc2cc(S(=O)(=O)N3CCOCC3)ccc21`, the “growth rescue (activation)” value was inactive: -7.07%.

Regarding `O=C(NNC(=S)NC1CCCCC1)c1ccccc1Cl`, the “growth rescue (activation)” value was inactive: 18.3%.

`O=C(CCNC(=O)c1ccco1)Nc1ccc(OC(F)(F)F)cc1`: the “growth rescue (activation)” value was inactive: 11.1%.

For `Cc1cc(NC(=O)c2ccco2)c(=O)n(Cc2cccc(C(F)(F)F)c2)c1`, the “growth rescue (activation)” value is inactive: 4.02%.

In the case of `CCOC(=O)NNC(=O)C12CC3CC(CC(C3)C1)C2`, the “growth rescue (activation)” value is inactive: 0.0433%.
